Source: the supplement of paper PMC5499739
Whole data set: some 16,000 sequences, median “Z-score” near -0.37, cut for the highest 2% near 3.1. This is one part of the list.

tested on: RBM10 RRM1-ZnF-RRM2 (GST-tagged construct); assay: RNAcompete 7-mer binding Z-score; higher = stronger binding preference
Procedure, shortened: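 In 1 ml Hepes pH 7.8 buffer with KCl, NaCl, glycerol, DTT, BSA and glutathione Sepharose beads, GST-tagged RBM10 constructs (20 pmol) were incubated for 30 min at 4°C with 1.5 nmol of a designed pool of 241 399 RNAs up to 41 nt. Four 2-min washes at 4°C followed, and bound RNA was detected by microarray hybridisation. Heptamer motif enrichment was expressed as a one-sided Z-score across probes containing each motif.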

Sequence	RNAcompete 7-mer binding Z-score
AGAUGAA	1.44
GUUACAG	0.632
UGGCGAU	0.833
GGACCGC	-0.205
GGUGCAA	1.47
CCGACUC	-0.963
UGUAAGG	1.43
AAUGGAU	2.33
UGGUGGA	2.74
AGCGUAG	0.672
UGAACGG	1.34
UCUGUGA	-0.533
UGAGUAG	1.05
CUUUACG	-0.81
GAGUGCC	-0.315
AGCGGUC	0.173
GUUAAGC	-0.154
CACGCCG	-0.548
CAACUUG	-0.694
UAUGCUA	-0.559
GUCGCUA	-0.22
AAAUGCG	0.221
UGCUCGA	-0.748

Sequence	RNAcompete 7-mer binding Z-score
ACAAGCC	-0.621
CAGCAUG	-0.0415
CUAUUCA	-0.836
UUAAAGU	-0.46
CUUCUAA	-0.897
UCUGGAU	-0.202
UAAGGCC	-0.191
UAUUAGA	0.00944
CUCGAGG	0.29
CCGCUGG	-0.464
GGAACUC	0.0823
GCGGCUG	0.476
UGGCACG	0.596
GGCUUGA	0.0204
AGGAGCU	0.723
ACGAUCA	-0.173
UAUUACC	-0.792
UAGCUAA	-0.369
UCCUUUA	-0.883
CUUCGAU	-0.795
CCCCUUC	-0.624
AAAUUAU	-0.533
AUGUCGU	-0.286

Sequence	RNAcompete 7-mer binding Z-score
AUUGUGA	0.108
GGCUAAG	0.454
CCUCCGU	-0.734
AUCACUC	-0.77
CCGGUUC	-0.624
GUGCUAA	0.137
CAGGAAA	1.26
CCUUCAC	-0.927
UCCUCAA	-0.799
AUACGUA	0.166
UUUUAUG	-0.653
GCACACA	-0.344
GUAUUGU	-0.347
CUGAUUU	-0.799
UUAUCAG	-0.468
ACUUAAG	-0.417
UCCCACU	-0.781
GCCAUGU	-0.632
CCGAUAA	-0.5
CGAGCGU	0.166
UUAUAUC	-0.712
CCAGCGG	0.465
AACGAGC	0.283

Sequence	RNAcompete 7-mer binding Z-score
GAGCGUU	0.0786
CGUCGUC	-0.468
GAGACCG	-0.0452
UCUUCCU	-0.701
CAAAUGG	1.24
GUUUACC	-0.326
GCGUUCU	-0.624
CCUACUC	-0.846
GUCUCAC	-0.486
GUCAAUA	-0.147
CAGAAAG	0.723
CGACUCU	-0.908
AUAAGAU	-0.195
GACACGC	-0.49
AAAAGAC	-0.00512
AGUACUA	-0.296
AGCUCGA	-0.406
AUCAGGA	1.28
ACGAGAG	0.709
CCGUAGC	-0.679
CUAGGGC	0.709
GGUUCUU	-0.457
GACAGUU	-0.129

Sequence	RNAcompete 7-mer binding Z-score
CAAGGUC	0.0714
CGGACCG	-0.267
GAUACGA	0.323
GUAUACA	0.29
CGAAACG	0.0459
AAGCCAU	-0.694
CCGCGCC	-0.748
GGGGAUC	2.27
UUUCCGG	-0.464
UUGGUUG	0.392
GGCGGUA	1.72
UCGGGCG	1.34
ACUUGUA	-0.646
UAGUACC	-0.621
GAUAGAG	1.52
AGUCCGG	0.104
GCCCGAG	-0.453
CAGUAAU	-0.275
UUUGGUU	0.0313
GCUCCGC	-0.759
GCAUGGA	1.99
GCCUACA	-0.916
UCUGAAU	-0.759

Sequence	RNAcompete 7-mer binding Z-score
CCUGCGU	-0.748
CUACUGG	-0.406
UCCCUCC	-0.683
CGCUGAU	-0.694
ACAUUUA	-0.785
UACAGCG	0.148
AAAAGAG	0.694
GACUGAG	0.414
AUUAAUC	-0.49
UUAUGCG	-0.326
GCGCGCG	0.563
UGGCUAG	0.519
CCCAUUG	-0.712
UAAUGUA	-0.158
AGGGAAC	3.06
AUAUAUC	-0.533
UUACCCC	-0.719
UCAGCGG	0.246
UGGCAAA	1.16
GCAAUCA	-0.114
UAACGGC	-0.0707
GCUUCGA	-0.5
UAUUGUC	-0.675

Sequence	RNAcompete 7-mer binding Z-score
GUUCAUC	-0.526
CGGUAGU	0.37
UACAGUU	-0.384
UUUGUCC	-0.85
GAGCGCU	-0.471
UCUUGGA	-0.362
UGGAAUU	0.527
AAGACGC	-0.253
CAUUUUU	-0.872
GUGCCAU	-0.395
AUCAACU	-0.592
UGUAUAU	-0.369
UCGCAGG	0.29
CACUGCU	-0.843
CUGUUUC	-0.846
CAUGCCC	-0.854
ACCCUAC	-0.832
UGCUUUC	-0.781
GGGAUUG	2.81
GCUGCAC	-0.475
AGUGUAA	0.578
UUCGCGU	-0.504
CUUCACC	-0.919

Sequence	RNAcompete 7-mer binding Z-score
ACGGUGU	0.825
GUGAGCG	1.86
GUUGUAA	0.155
GUGGACG	2.32
CGUCCAA	-0.686
UGCAAUA	-0.0962
AUCAGUG	0.665
UGUCUUC	-0.734
CUACUCA	-0.879
AUCAGCG	-0.125
CUGUUUU	-0.89
GGACGCA	0.683
AGCAGGG	3.39
GUGCAUG	0.785
UCAGAUG	0.115
CGGUCGC	-0.304
UGAGUGG	2.63
CAGUAGC	-0.344
UCUUCUC	-0.821
AGAUAGA	0.439
AAGCCUU	-1.05
UCAUUAG	-0.409
